According to article PMC4336329 (PLoS ONE, 2015):
Screen size: about 310,000 compounds; about 2,200 (0.71%) showed an effect of 50% or more. The effect is printed as a negative number. This is one part of the list.

target: human ether-à-go-go-related gene (hERG) potassium channel (human, UniProt Q12809); test: primary screen, population patch clamp on CHO cells stably expressing hERG
Sequence (Q12809 whole entry, looked up): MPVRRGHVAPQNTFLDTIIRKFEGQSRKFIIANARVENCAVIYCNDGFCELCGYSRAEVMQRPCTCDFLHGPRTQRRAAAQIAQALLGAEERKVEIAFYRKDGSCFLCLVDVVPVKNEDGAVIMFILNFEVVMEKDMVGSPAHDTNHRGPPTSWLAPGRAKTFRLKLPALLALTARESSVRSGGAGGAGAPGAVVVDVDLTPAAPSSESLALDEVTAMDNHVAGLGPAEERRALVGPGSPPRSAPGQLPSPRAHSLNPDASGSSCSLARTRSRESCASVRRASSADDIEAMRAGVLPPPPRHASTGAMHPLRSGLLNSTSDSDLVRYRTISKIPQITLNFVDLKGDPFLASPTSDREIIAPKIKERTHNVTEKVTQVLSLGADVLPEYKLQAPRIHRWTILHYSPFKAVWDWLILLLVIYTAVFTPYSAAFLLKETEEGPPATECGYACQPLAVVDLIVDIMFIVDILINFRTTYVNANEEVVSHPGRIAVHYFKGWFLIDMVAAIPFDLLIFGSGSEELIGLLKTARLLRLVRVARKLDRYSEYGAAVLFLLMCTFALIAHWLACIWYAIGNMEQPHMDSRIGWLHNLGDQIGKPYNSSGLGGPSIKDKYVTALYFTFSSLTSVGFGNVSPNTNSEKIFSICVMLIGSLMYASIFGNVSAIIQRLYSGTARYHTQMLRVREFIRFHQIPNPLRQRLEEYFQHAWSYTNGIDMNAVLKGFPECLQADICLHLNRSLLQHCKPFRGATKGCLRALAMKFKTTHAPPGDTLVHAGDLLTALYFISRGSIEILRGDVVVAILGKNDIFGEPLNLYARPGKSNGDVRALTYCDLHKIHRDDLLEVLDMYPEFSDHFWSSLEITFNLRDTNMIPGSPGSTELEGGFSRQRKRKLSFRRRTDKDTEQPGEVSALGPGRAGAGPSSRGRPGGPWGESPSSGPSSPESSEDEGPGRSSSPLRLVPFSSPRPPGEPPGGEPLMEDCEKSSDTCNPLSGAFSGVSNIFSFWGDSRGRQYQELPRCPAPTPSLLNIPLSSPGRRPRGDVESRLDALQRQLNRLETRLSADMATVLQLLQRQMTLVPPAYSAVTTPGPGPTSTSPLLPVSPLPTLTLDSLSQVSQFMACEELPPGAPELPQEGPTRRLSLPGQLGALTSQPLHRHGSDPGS

| Structure (SMILES) | hERG current change (%, negative = inhibition) at 1uM [%] |
| --- | --- |
| O=C(NCc1ccc(S(=O)(=O)Nc2ccccc2Cl)s1)c1ccccc1 | 8.93 |
| O=C(Nc1cccc(S(=O)(=O)N2CCCC2)c1)c1ccncc1 | -18.1 |
| COc1ccc(CC(=O)N2CCCC(C)C2)cc1 (centres unmarked) | 13.2 |
| COc1ccc(-c2ccc(C(C)=O)cc2)cc1[C@H]1[C@@H]2C=CCC[C@@]2(C)C(=O)N1Cc1ccccc1 | 21.9 |
| COc1ccc(/C=C(\NC(=O)c2ccc(C)cc2)C(=O)NCCCn2ccnc2)cc1OC | 12.1 |
| CCOC(=O)c1ccc(N2C(=O)CC(C)(CC)CC2=O)cc1 | 11.3 |
| Cc1ccccc1C(=O)Nc1ccccc1NC(=O)c1ccccc1Br | 14.4 |
| Fc1cccc(Cc2noc(CN3CCN(C4CCc5ccccc5C4)CC3)n2)c1 (centres unmarked) | -67.5 |
| Cc1onc(-c2ccccc2)c1C(=O)c1c[nH]c(C(=O)NCc2ccncc2)c1 | 2.86 |
| CCC(c1nnnn1Cc1ccccc1)N(Cc1ccco1)Cc1cc2cc(OC)ccc2[nH]c1=O (centres unmarked) | -0.423 |
| COc1ccc(N2CCN(C(=O)CSc3nnnn3C3CC3)CC2)cc1 | 6.75 |
| CC12C=CC3(O1)C(C(=O)N(c1cccnc1)C3C(=O)NC1CCCCC1)C2C(=O)Nc1ccccc1 (centres unmarked) | 23.5 |
| CCCCn1c(N)c(N(CCOC)C(=O)C(C)Oc2ccc(Cl)cc2)c(=O)[nH]c1=O (centres unmarked) | 3.51 |
| O=C(CNS(=O)(=O)c1ccccc1)OCC(=O)c1ccc(OC(=O)c2ccccc2)cc1 | 0.118 |
| Cn1c(=O)c2c(ncn2CC(=O)N2CCCCCC2)n(C)c1=O | 14.5 |
| CCCCNc1c(-c2cccc(-c3ccc(OC)cc3)c2)nc2ccc(C)cn12.O=C(O)C(F)(F)F | 4.1 |
| CNNC(=S)NCCC1=CCCCC1 | 10.2 |
| COc1ccc(N2CCN(S(=O)(=O)CCNC(=O)COc3ccc(Cl)cc3)CC2)cc1 | 28.3 |
| N#Cc1ccccc1OCC(=O)NC(N)=O | 8.8 |
| CC1Cc2ccccc2N1C(=O)CCn1c(=O)sc2ccccc21 (centres unmarked) | 16.7 |
| Cc1cccc(C)c1N(CC(O)Cn1c2ccccc2c2ccccc21)S(C)(=O)=O (centres unmarked) | 20.5 |
| COc1ccc(N(CC(=O)NCCc2ccc(OC)c(OC)c2)S(=O)(=O)c2c(C)noc2C)cc1 | 3.54 |
| COc1ccc(C(=O)/C=C/Sc2nc3ccccc3o2)cc1 | 15.9 |

| Structure (SMILES) | hERG current change (%, negative = inhibition) at 1uM [%] |
| --- | --- |
| COC(=O)c1cccc2c1-c1ccccc1/C2=N\NC(N)=O | 8.56 |
| COc1cc(OC)cc(-c2nc(SCC(=O)Nc3ccccc3F)n[nH]2)c1 | 11.9 |
| O=C(COc1ccc2ccccc2c1)Nc1nnc(-c2ccco2)s1 | -1.16 |
| CCN(CC)CCCNC(=O)c1cn(CC)c2ccc(S(=O)(=O)N3CCc4ccccc4C3)cc2c1=O | 1.94 |
| O=C(Nc1cccc(Cl)c1)c1cccc(N2C(=O)C3CC=CCC3C2=O)c1 (centres unmarked) | -3.6 |
| CN(C)c1ccc(/C=C(/NC(=O)c2ccccc2)C(=O)NCCCn2ccnc2)cc1 | 16.1 |
| CCN1CCC(Nc2ccnc3cc(Cl)ccc23)CC1 | -0.974 |
| CSc1nnc(-c2sc3cc(Cl)ccc3c2Cl)n1C | 0.997 |
| Fc1ccc(CN(Cc2ccccc2)C(c2cccs2)c2nnnn2C2CCCCC2)cc1 (centres unmarked) | 2.28 |
| COc1ccccc1NC(=O)N1CCN(S(C)(=O)=O)CC1 | 12.8 |
| Cc1ccc(NC(=O)COc2ccc3c(c2)OCO3)c(Cl)c1 | 19.1 |
| CC(OC(=O)CC1CCCC1)C(=O)Nc1ccc(S(N)(=O)=O)cc1 (centres unmarked) | -7.85 |
| CC(=O)C1=C(C)NC(=S)NC1c1cc([N+](=O)[O-])ccc1O (centres unmarked) | 10.2 |
| Cn1c2ccccc2c(=O)c2ccc(F)cc21 | 11.7 |
| CCOc1ccc(CCNC(=O)COC(=O)c2cc(OC)c(OC)cc2[N+](=O)[O-])cc1OCC | 13.7 |
| c1cnc(Sc2ccc3nnnn3n2)nc1 | -29.8 |
| CCOc1ccc(C(=O)NC2CCN(C(=O)Nc3ccc(F)cc3)CC2)cc1 | 6.75 |
| CCC1(C)Cc2sc3c(=O)[nH]c(=S)[nH]c3c2CO1 (centres unmarked) | 13.6 |
| COc1cc(NC(=O)C2CCCN2C(=O)C2CCC(C)CC2)cc(OC)c1OC (centres unmarked) | -0.772 |
| Cc1ccccc1C(=O)Nc1ccc(N2CCN(C)CC2)nc1 | 10.3 |
| CSc1cccc(NS(=O)(=O)c2cccs2)c1 | 7.8 |
| Cc1ccc(NC(=O)CCNC(=O)c2ccc(Cl)cc2)cc1C | 12.4 |
| CCOC(=O)C1=C(C)Nc2ccccc2N/C1=N\S(=O)(=O)c1ccc(Cl)cc1 | 0.996 |

| Structure (SMILES) | hERG current change (%, negative = inhibition) at 1uM [%] |
| --- | --- |
| O=C1[C@@H]2Cc3c([nH]c4ccccc34)C(c3ccc([N+](=O)[O-])cc3)N2C(=O)CN1C1CC1 (some centres unmarked) | 12.3 |
| O=[N+]([O-])c1nn(-c2ccccc2)[n+]([O-])c1N1CCN(c2ccccc2F)CC1 | 11.5 |
| Cc1cc(-c2nnc(SCc3ccccn3)o2)no1 | 8.45 |
| Cc1nc(N2CCN(c3ccccn3)CC2)c2c(C)c(C(=O)N3CCN(c4ccccc4F)CC3)sc2n1 | 6.56 |
| O=C(O)/C(=C\c1cccs1)Sc1nnc(-c2ccc(F)cc2)o1 | 7.47 |
| O=C(Nn1c(-c2ccccc2)nc2ccccc2c1=O)c1cccs1 | 18.3 |
| CCOC(=O)CN1C(=O)C2(OCCCO2)c2cc(Br)ccc21 | 11.1 |
| Cc1nn(-c2ccccc2)c(N)c1Sc1ccccc1[N+](=O)[O-] | 12.9 |
| Cc1ccc2[nH]c(=O)c(CNS(=O)(=O)c3ccccc3)c(-c3ccccc3)c2c1 | 9.41 |
| O=C(NC1CCCC1)C1CC1c1ccccc1 (centres unmarked) | 4.44 |
| COc1ccc(C(C)=O)cc1CSc1ccccn1 | 3.52 |
| Cc1cc(NCc2ccccc2)nc(-c2ccccc2O)n1 | 12.6 |
| CCOC(=O)C1CCCN(C(=O)Cc2c(C(=O)O)[nH]c3ccccc23)C1 (centres unmarked) | -4.97 |
| C=CCN1C(=O)c2cccc3c(Br)ccc(c23)C1=O | 10.1 |
| CCOc1ccc(NC(=S)N=Nc2c(O)[nH]c3ccccc23)cc1 | 12.1 |
| O=C(CSc1nnc(-c2ccncc2)n1Cc1ccco1)Nc1ccccc1F | 6.98 |
| Cc1ccc(S(=O)c2ccc(C)cc2)cc1 | 3.27 |
| COc1ccc(C(=O)COC(=O)c2ccc(N(C)C)cc2)cc1 | 6.2 |
| Fc1ccc(-n2cc(-c3ccccc3)[n+]3c2SCC3)cc1.[Br-] | 0.345 |
| CCC(C)NC(=O)Nc1ccc(Br)cc1 (centres unmarked) | -6.84 |
| CNC(=O)c1csc(-c2ccc(Cl)cc2)n1 | 0.835 |
| O=c1[nH]c(=O)n(Cc2ccc(F)cc2)c(O)c1C=NCCCN1CCOCC1 | -5.3 |
| COC(=O)c1cccc(NC(=O)/C=C/c2ccc([N+](=O)[O-])cc2)c1 | 1.02 |

| Structure (SMILES) | hERG current change (%, negative = inhibition) at 1uM [%] |
| --- | --- |
| CC(=O)Nc1ccc2nc(CN3CCN(CC=C(C)C)C(CCO)C3)ccc2c1 (centres unmarked) | 3.95 |
| CC(=O)Nc1ccc(S(=O)(=O)Nc2cccc(C(=O)NC(C)(C)C)c2)cc1 | -4.58 |
| CCOc1ccccc1CN1CCN(Cc2ccon2)CC1CCO (centres unmarked) | -7.08 |
| Cc1occc1C(=O)NNC(=S)Nc1ccccc1 | 8.65 |
| CC1=NNC(=O)C1CC(=O)N/N=C(\C)c1ccco1 (centres unmarked) | 15.7 |
| CNC(=S)N(CCc1ccc(OC)c(OC)c1)Cc1cc2c(C)cc(C)cc2[nH]c1=O | 2.31 |
| O=C(CNC(=O)c1cccs1)NCC(=O)OCc1c(Cl)cccc1Cl | 1.99 |
| COc1ccc(CC(=O)Nc2ccc(-c3noc(-c4ccccc4OC)n3)cc2)cc1 | -11.7 |
| Cc1cc2n(n1)C(c1ccccc1Cl)Nc1ccccc1-2 (centres unmarked) | 7.12 |
| CCC1=NN2C(=N)/C(=C/c3ccc(OS(=O)(=O)c4ccccc4)c(OC)c3)C(=O)N=C2S1 | 13 |
| O=C(NCCc1ccccc1)NC(Cc1ccccc1)C(=O)O (centres unmarked) | 12.6 |
| CC(C)(C)C1CCC(OC(=O)C[N+]2(C)CCCCC2)CC1.[I-] (centres unmarked) | 7.41 |
| Br.COc1cccc(C(=O)Cn2c(=N)n(C)c3ccccc32)c1 | -17.5 |
| COc1cc(CCC(=O)Nc2nnc(-c3cccnc3)s2)cc(OC)c1OC | 9.73 |
| Cc1ccc(NC(=O)/C(C#N)=C/c2ccccc2C(F)(F)F)cc1 | 4.19 |
| Cc1cc(C)cc(OCC(=O)N/N=C/c2ccco2)c1 | 18.2 |
| CN(C)S(=O)(=O)c1ccc(C(=O)Nc2ccccn2)cc1 | 3.36 |
| COc1cccc(-n2cn[nH]c2=S)c1 | 12 |
| N#Cc1nc(Cc2cccc3ccccc23)oc1NCC1CCCO1 (centres unmarked) | 3.91 |
| O=C(N/N=C/c1ccc(Cl)cc1Cl)Nc1ccccc1 | 23.1 |
